Data on 24 compounds can be found in ChEMBL document CHEMBL4888484, “Replenishing the malaria drug discovery pipeline: Screening and hit evaluation of the MMV Hit Generation Library 1 (HGL1) against asexual blood stage Plasmodium falciparum ,using a nano luciferase reporter read-out” (2022).

As a reminder, the % Inhibition is the relative decrease from the control value, in per cent.

The campaign covered roughly 150,000 compounds. About 540 (0.36%) showed an effect of 50% or more. This is one part of the list.

This assay relates to Plasmodium falciparum. The experiment in a line: Primary screen in NF54 nanoGlo assay, in single point, at 2uM, 72h; a lower Z score goes with more inhibition. In kind it is functional, Erythrocyte. The note with it: timepoint 72 hour.
For the compound `COc1ccc(-n2ncc3c2CC(C)(C)C[C@@H]3NC(=O)CCN2CCCC2=O)cc1`, the “% Inhibition” value amounted to 4% and the Z score is listed as -0.36.
As to `CC(=O)N[C@@H](CC(=O)N1CCCCCCC1)c1c(F)cccc1F`, the “% Inhibition” value is recorded as 6% and the Z score is given as -1.
Consider `CC(C)c1ccc(C#N)c(-c2ccc(N(C)C)nc2)n1`, for which the “% Inhibition” value is listed as -6% and the Z score is 0.96.
For `CCC[C@H](C)c1cn(CCn2cccn2)nn1`, the “% Inhibition” value is recorded as -13% and the Z score is 2.46.
In the case of `O=C(Cc1cnc2ncnn2c1)N[C@H]1CCCN(C2CCCCCC2)C1`, the “% Inhibition” value is given as -26% and the Z score stood at 2.36.
`CC(NS(=O)(=O)CCC1CCOC1)C1CC2CCC1C2` (stereo not drawn): the “% Inhibition” value was -6% and the Z score is reported as 0.91.
The matching figures for `CN(C(=O)[C@H]1C[C@@H]1C1CC1)c1nncs1`: 11% and -1.09.
On the same counts, the results for `Cc1sc(C2(NCc3cnn(C(C)(C)C)c3)CCC2)nc1-c1ccccc1F` are -5% and 0.69.
As for `CNc1cccc(-c2ccncc2C2CC2)c1`, the “% Inhibition” value is given as -3% and the Z score is recorded as 0.37.
On the same counts, the results for `Cc1ccc(C(=O)N2CCCC[C@H]2c2cncn2C)c(F)c1` are -9% and 1.18.
The matching figures for `CN(CCc1ccnn1C)Cc1cc(F)ccc1Br`: 6% and -0.76.
On the same counts, the results for `O=C(NCCc1ccc2c(c1)OCCO2)[C@H]1CCCN(S(=O)(=O)c2cccs2)C1` are 11% and -1.26.
For the compound `Cc1c(NC(=O)Cn2cnc(C#N)n2)c(=O)n(-c2ccccc2)n1C`, the “% Inhibition” value is -4% and the Z score is 0.61.
With `O=c1sc2ccccc2n1/C=C/c1ccccc1`, the “% Inhibition” value came out at 3% and the Z score is reported as -0.49.
On the same counts, the results for `Cc1ccc(F)c(CNC(=O)CCc2cn[nH]c2)c1F` are -7% and 0.97.
On the same counts, the results for `O=C(NC[C@H]1CCCS1(=O)=O)c1ccc(C(F)(F)F)[nH]1` are 5% and -0.46.
On to `CCN1CCN(C(C)(C)CNC(=O)[C@@H](c2ccccc2C)N(C)C)CC1`, for which the “% Inhibition” value is given as -11% and the Z score came to 1.37.
As for `Cc1ccc2nc(CN3C[C@@H]4CC[C@H]3CN(S(=O)(=O)N(C)C)C4)cn2c1`, the “% Inhibition” value is -6% and the Z score came out at 1.2.
On the same counts, the results for `O=C(Nc1ccccc1-c1cc(F)c(F)c(F)c1)c1ccn2ccnc2c1` are 5% and -0.46.
For the compound `CC1CCC(C(=O)Nc2cccnc2)O1` (stereo not drawn), the “% Inhibition” value is -12% and the Z score worked out at 1.59.
The matching figures for `Cc1ccc([C@H](C)NC(=O)c2cc(CN3CCC(O)CC3)on2)cn1`: 0% and -0.04.
On the same counts, the results for `C=CCNC(=O)Cn1c(-c2ccccc2)nn(-c2ccccc2Cl)c1=O` are 6% and -0.75.
The matching figures for `C[C@H](Nc1nc2ccccc2o1)C(=O)N1CCCCC1`: -9% and 0.85.
For the compound `Fc1ccc(-c2csc(N3C[C@@H]4NCCO[C@H]4C3)n2)cc1`, the “% Inhibition” value was determined as 9% and the Z score is on record as -1.7.
